Test results reported in PubChem BioAssay AID602332 (National Center for Advancing Translational Sciences (NCATS), 2012).
Several values for one entry are separate records, joined by “and”; a condition that tells them apart may be missing. Identical values can stand only once. Screen size: about 420,000 compounds; about 75 (0.02%) were called active. This list was built around the results that the source calls inconclusive (neither active nor inactive); the mix of calls is not that of the screen. Calls follow the shape of the dose curve; as a rule, active = well fitted activation curve with a large enough effect; inconclusive = small, poorly fitted or top-dose-only effect; inactive = no such curve, though single readings can be large or run the other way. Potencies of inconclusive entries are doubtful fits and often do not repeat.
Potency is read from the fitted curve at half-maximal effect; tags tell the direction and shape of the fitted curve.

Experiment: qHTS for Inducers of the Endoplasmic Reticulum Stress Response (ERSR) in Human Glioma: qHTS; also: nearly all actives have a fitted effect of over 35% in size; as to activation: % of control where 0% means no effect
Conditions: U87-MG GRP78 promoter luciferase reporter, 16 h; activation: stronger effect = higher value
Outline: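 Stably transfected U87-MG glioma cells carrying a GRP78-based luciferase sensor; 16 h compound incubation. Luminescence end-point read 10 min after Bright-Glo addition at room temperature.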
In the case of `Cc1ccccc1NC(=O)c1c(NC(=O)c2ccncc2)sc2c1CCC(C(C)(C)C)C2` (configuration not stated), the activation is reported as inactive: -2.94%.
For `COc1cccc(C2C(C(=O)c3cc4ccccc4o3)=C(O)C(=O)N2c2cc(C)on2)c1OC` (configuration not stated), the Potency was inconclusive: 11.2 µM [activator, full curve].
For `Cc1c(CCC(=O)O)c(=O)oc2cc3occ(-c4ccc(F)cc4)c3cc12`, the Potency was inconclusive: 44.7 µM [activator, partial curve, poor fit].
With `CC(Nc1nc(-c2ccc(F)cc2)cs1)c1nc2cc(Cl)c(N3CCCCC3)cc2n1CCCO` (configuration not stated) the Potency was inconclusive: 44.7 µM [activator, partial curve, poor fit].
With `CC(C)Nc1nc(NC(C)(C)C)nc(Oc2ccc(=O)n(C)n2)n1` the Potency was inconclusive: 28.2 µM [activator, single point].
In the case of `Cc1cccc(-c2nnc(-c3ccc4ccccc4c3)o2)c1`, the activation is reported as inactive: -4.17%.
For `Cc1ccc(S(=O)(=O)Nc2cc(=O)[nH]c(SCc3ccccc3Cl)n2)cc1`, the activation was inactive: -3.35%.
With `CC1CN(S(=O)(=O)c2ccc(C(=O)Nc3nnc(-c4ccc5c(c4)CCCC5)o3)cc2)CC(C)O1` (configuration not stated) the activation was inactive: -4%.
In the case of `Brc1ccc(-c2csc(/N=C/N3CCOCC3)n2)cc1`, the Potency is reported as inconclusive: 3.16 µM [activator, full curve, poor fit].
With `COc1ccc(NC(=O)CC2CCCCC2)cc1OC` the Potency was inconclusive: 15.8 µM [activator, single point].
For `COc1ccc(N(CC(=O)N/N=C/c2ccc(-c3ccc([N+](=O)[O-])cc3)o2)S(=O)(=O)c2ccc(C)cc2)cc1`, the activation was inactive: -1.35%.
For `COc1ccc(/C(O)=C2/C(=O)C(=O)N(CCCN3CCOCC3)C2c2ccc(N(C)C)cc2)cc1` (configuration not stated), the Potency was inconclusive: 20 µM [activator, single point].
In the case of `Cc1ccc(CNC(=O)c2c(Nc3c(C)cccc3C)sc(C(=O)c3ccccc3)c2N)cc1`, the Potency is reported as inconclusive: 12.6 µM [activator, full curve, poor fit].
For `O=S(=O)(NCCCN1CCN(c2ccccc2F)CC1)c1cccc2cccnc12`, the activation was inactive: -4.5%.
In the case of `O=[N+]([O-])c1ccc(-c2cnc(SCc3ccccc3Cl)[nH]2)cc1`, the Potency is reported as inconclusive: 12.6 µM [activator, single point].
For `CC(C)c1cc(-c2nc(-c3ccc(Cl)cc3)no2)n[nH]1`, the activation was inactive: -7.13%.
In the case of `C=C[C@@H]1c2cc(C)ccc2N(S(=O)(=O)c2ccc(C)cc2)[C@H](c2ccc(OC(C)=O)cc2)C1(C#N)C#N`, the activation is reported as inactive: 2.11% and inactive: -0.612%.
In the case of `CCOC(=O)c1sc(C)c2c1NC1(CCCCC1)NC2=O`, the activation is reported as inactive: -2.39%.
With `COc1ccc(C)cc1NS(=O)(=O)c1ccc2oc(=O)c3ncn(C)c3c2c1` the Potency was inconclusive: 44.7 µM [activator, partial curve, poor fit].
In the case of `COc1ccccc1-c1ccc(SCc2ccccc2F)nn1`, the Potency is reported as inconclusive: 25.1 µM [activator, partial curve, poor fit].
In the case of `CC(C)C[C@H](NC(=O)c1nc[nH]c1C(=O)N1CCc2ccccc2C1)C(=O)OCc1ccccc1`, the Potency is reported as inconclusive: 12.6 µM [activator, single point].
For `Oc1sc(C=Nc2ccccc2)c2ccccc12`, the Potency was inconclusive: 3.98 µM [activator, partial curve, poor fit].
In the case of `CC(C)c1nc2sc3c(NCc4ccccc4)ncnc3c2c2c1COC(C)(C)C2`, the activation is reported as inactive: -6.09%.
With `COc1ccc(C(=O)N(C)CCCC2CCCC2)cc1OC1CCN(C(C)C)CC1` the Potency was inconclusive: 44.7 µM [activator, partial curve, poor fit].
With `Cc1ccc(SCC(=O)N2CCc3ccccc32)cc1` the Potency was inconclusive: 11.2 µM [activator, full curve, poor fit].
In the case of `Cc1ccc(OCc2cc(C(=O)NCCc3cccnc3)no2)cc1C`, the Potency is reported as inconclusive: 31.6 µM [activator, partial curve, poor fit].
For `CCOc1cccc2cc(C(=O)Nc3cc(C)on3)c(=O)oc12`, the activation was inactive: -1.45%.
For `O=C1COc2ccc(C(=O)CSc3nc4ccccc4c(=O)n3-c3ccc(Cl)c(Cl)c3)cc2N1`, the activation was inactive: -1.54%.
In the case of `O=C(NCCc1csc(-c2ccccc2)n1)c1ccco1`, the Potency is reported as inconclusive: 56.2 µM [activator, single point].
For `COc1ccc(-c2nn(C)c(=O)c3ccccc23)cc1NC(=O)Cn1nc(C)c2ccccc2c1=O`, the Potency was inconclusive: 17.8 µM [activator, single point].
In the case of `Cc1c(Cl)cccc1Nc1ccccc1C(=O)O`, the Potency is reported as inconclusive: 50.1 µM [activator, single point].
For `COc1cc(C(=O)Nc2nc3ccc4nc(C)sc4c3s2)cc(OC)c1OC`, the activation was inactive: -1.97%.
For `Cc1cccc(C(=O)Nc2sc3c(c2C(=O)O)CCC3)c1`, the activation was inactive: 4.24%.
For `O=c1cc(CSc2ccc(Cl)cc2)nc(-c2ccccn2)[nH]1`, the Potency was inconclusive: 22.4 µM [activator, single point].
In the case of `Clc1ccc2[nH]c(-c3ccccc3)cc2c1`, the Potency is reported as inconclusive: 15.8 µM [activator, partial curve, poor fit].
With `CN(C)C(=O)c1ccc(NC(=O)CC2SC(N3CCCC3)=NC2=O)cc1` (configuration not stated) the activation was inactive: -5.3%.
With `Cc1ccsc1C(=O)OCC(=O)Nc1ccc(Cl)cn1` the Potency was inconclusive: 14.1 µM [activator, single point].
In the case of `O=C(N/N=C/C=C\c1ccco1)c1ccccn1`, the Potency is reported as inconclusive: 10 µM [activator, single point].
With `S=C(NCCCN1CCOCC1)N1CCN(c2cccc(Cl)c2)CC1` the activation was inactive: -2.38%.
With `O=C(Nc1cc(Cl)ccc1-n1cncn1)c1ccc([N+](=O)[O-])o1` the Potency was inconclusive: 11.2 µM [activator, full curve, poor fit].
With `O=C(COC(=O)/C=C/c1ccco1)NCc1ccco1` the activation was inactive: 0.521%.
In the case of `Cc1ccc(Nc2nc3ccccc3[nH]2)nc1`, the Potency is reported as inconclusive: 50.1 µM [activator, single point].
